# “And” between values parts separate entries of the source, which are not always exact repeats. Equal entries are not always repeated. Among all 310,000 compounds or so, about 18,000 (5.8%) were called active. Inconclusive results, whose numbers are uncertain, are shown with a selection of clear calls. Calls follow the shape of the dose curve; as a rule, active = well fitted inhibition curve with a large enough effect; inconclusive = small, poorly fitted or top-dose-only effect, or another doubt; inactive = no such curve, though single readings can be large or run the other way. Potencies of inconclusive entries are left out as doubtful fits.
# Assay: Primary qHTS for delayed death inhibitors of the malarial parasite plastid, 48 hour incubation
# Details: P. falciparum luciferase growth in erythrocytes; series mostly up to 28.7 µM
# In short: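 In quantitative HTS format, infected erythrocytes bearing luciferase-reporter parasites were treated for a single generation at 37 C. Luminescence after adding detection reagent served as the growth measure.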
# Potency is read from the fitted curve at half-maximal effect; tags tell the direction and shape of the fitted curve.
row,Structure (SMILES),Potency
1,CC(=O)OCC(=O)C1=CCC2C3CCC4=CC(=O)C=CC4(C)C3(F)C(OC(C)=O)CC12C (stereo not drawn),"inconclusive [inhibitor, partial curve, poor fit]"
2,CC(C#N)Sc1nnc(-c2ccccc2F)n1C1CC1 (stereo not drawn),inactive
3,CCc1nnc(NC(=O)Cn2nc(-c3ccccc3OC)ccc2=O)s1,inactive
4,Fc1ccc(-c2cc(-c3nnc4n3CCCCC4)c3ccccc3n2)cc1,"inconclusive [inhibitor, single point]"
5,CCOC(=O)c1cccc(NC(=O)CN2CCN(c3ccc(OC)cc3)CC2)c1,"inconclusive [inhibitor, single point]"
6,CCOc1ccccc1NC(=O)COc1coc(CN2CCCc3ccccc32)cc1=O,active: 13.1 µM
7,COc1ccccc1CCNC(=O)C(=O)NCC1OCCN1S(=O)(=O)c1ccc(Br)cc1 (stereo not drawn),"inconclusive [inhibitor, partial curve]"
8,O=C1C=C2C=CC3C[C@@]2(O1)C1CCCCN31 (stereo partly drawn),active: 12 µM
9,CCOc1ccccc1N1CCN(C(=O)Nc2ccc(Cl)c(Cl)c2)CC1,"inconclusive [inhibitor, partial curve, poor fit]"
10,COc1ccc(NC(=O)N(CCCN(C)C)Cc2cc3cc(OC)ccc3[nH]c2=O)cc1,"inconclusive [inhibitor, single point]"
11,CCOC(=O)c1c(CSc2nc(C)cc(C)c2C#N)n(C)c2cc(Br)c(OC(C)=O)cc12,"inconclusive [inhibitor, full curve]"
12,O=C(Nc1ccc2c(c1)CCC2)C1CCCO1 (stereo not drawn),inactive
13,c1ccc(Cn2nnc3c(N4CCOCC4)ncnc32)cc1,inactive
14,CCCC(C)NC(=O)Cc1ccccc1 (stereo not drawn),"inconclusive [inhibitor, partial curve, poor fit]"
15,CCCn1c(SCC(=O)Nc2cccc(S(=O)(=O)N(C)C)c2)nc2ccccc2c1=O,"inconclusive [inhibitor, partial curve, poor fit]"
16,CCCCCn1c(=O)c(C(=O)NCc2ccco2)c(O)c2ccccc21,"inconclusive [inhibitor, single point]"
17,COc1cc2c3nnc(-c4ccc(F)cc4)c-3cn(Cc3ccc(C)cc3)c2cc1OC,active: 0.329 µM
18,O=C(NCc1ccc(F)cc1)c1nc(-c2cccs2)no1,inactive
19,COc1ccc(N2CC(C(=O)N(CC(C)C)c3c(N)n(Cc4ccccc4)c(=O)[nH]c3=O)CC2=O)c(OC)c1 (stereo not drawn),inactive
20,Cc1cc(C)n(CCc2nc(-c3ccc(F)cc3)cs2)n1,"inconclusive [inhibitor, single point]"
21,COCCN(C(=O)COC(=O)c1ccc2[nH]c(C)c(C)c2c1)c1c(N)n(Cc2ccccc2)c(=O)[nH]c1=O,"inconclusive [inhibitor, partial curve, poor fit]"
22,CC(C)CCNC(=O)c1cc(C(=O)c2cc(Br)ccc2O)cn(CCC(C)C)c1=O,active: 1.04 µM
23,CCC(C)C(NS(=O)(=O)c1ccc(C)cc1)C(=O)N1CCOCCOCCOCC1 (stereo not drawn),inactive
24,COCCCNC(=S)Nc1ccc(N2CCCCC2)cc1,inactive
25,O=C(Nc1ccccc1)c1ccccc1NC(=O)C1CCCCC1,inactive

row,Structure (SMILES),Potency
1,COc1ccccc1N(C)S(=O)(=O)c1ccc(C(=O)N(C)Cc2ccc(Cl)s2)cc1,active: 11.7 µM
2,C/C=C(\C)C(=O)Nc1cccc(C2=NOC3(C2)C[C@@H](C(N)=O)N(C(=O)c2ccccc2C(=O)c2ccccc2)C3)c1 (stereo partly drawn),"inconclusive [inhibitor, single point]"
3,CC1(C)c2[nH]c3ccccc3c2C[C@H]2C(=O)N(N)CC(=O)N21,inactive
4,CCC(=O)n1nc(-c2ccc(OC)cc2)nc1NCc1cccs1,inactive
5,CCCC(=O)Nc1nnc(SCC(=O)NC2CC2)s1,inactive
6,COc1ccc(C(=O)NCc2nc(C)c(C)s2)cc1OC1CCN(C(C)C)CC1,"inconclusive [inhibitor, partial curve]"
7,Cc1c(/C=N/n2cnnc2)c2ccccc2n1CCOc1ccccc1,active: 13.1 µM
8,O=S(=O)(Nc1nc2ccccc2nc1Cl)c1ccc(Br)cc1,inactive
9,CC#C[C@]1(O)CC[C@H]2[C@@H]3CCC4=CC(=O)CCC4=C3[C@@H](c3ccc(N(C)C)cc3)C[C@@]21C,active: 14.7 µM and active: 13.5 µM
10,COc1cc(C#Cc2c(-c3ccccc3)n(C)c3ccccc23)cc(OC)c1,"inconclusive [inhibitor, partial curve]"
11,CN(CCc1ccccn1)C1CCCN(S(=O)(=O)c2ccccc2Cl)C1 (stereo not drawn),"inconclusive [inhibitor, partial curve]"
12,CCCc1cc(-c2n[nH]c(=S)n2CC)cs1,inactive
13,CCN1CCC2(CCN(Cc3cn[nH]c3-c3ccc(OC)c(F)c3)C2)C1 (stereo not drawn),"inconclusive [inhibitor, single point]"
14,Cc1ccc2c(c1)sc(-c1ccc(N(C)C)cc1)[n+]2C,inactive
15,CC1(C)CC2CC(C)(CN2S(=O)(=O)c2ccc(C(=O)Nc3ccc(S(=O)(=O)N4CCOCC4)cc3)cc2)C1 (stereo not drawn),active: 10.4 µM
16,Cc1nc(Cl)c(C#N)c2c1CCCC2,"inconclusive [inhibitor, full curve, poor fit]"
17,CC1=Nc2cc(C(=O)N3CCCCC3)ccc2Sc2ccc(C)cc21,active: 9.28 µM
18,CCCSc1sc(C(=O)OC)c(-c2cccs2)c1C#N,active: 10.4 µM
19,C=CCN(c1cccc(C(F)(F)F)c1)S(=O)(=O)c1cccc(C(=O)OCC(=O)NCCC)c1,"inconclusive [inhibitor, single point]"
20,CCCn1nc(C(=O)Nc2ccc(N3CCOCC3)cc2)c2ccccc2c1=O,inactive
21,COc1ccc(Cl)cc1C(=O)NC(=S)Nc1ccccc1N1CCOCC1,"inconclusive [inhibitor, single point]"
22,CC(C)OC(=O)Nc1ccc2c(c1)N(C(=O)N1CCN(C)CC1)c1ccccc1CC2,inactive
23,CCc1ccccc1OCC(=O)Nc1cc(S(=O)(=O)N2CCOCC2)ccc1N1CCCCC1,active: 2.94 µM
24,c1ccc(CC2CCN(c3nnnn3-c3ccccc3)CC2)cc1,"inconclusive [inhibitor, partial curve]"
25,CN(CC(=O)Nc1cccc(F)c1)C(=O)c1ccccc1Cc1ccccc1,"inconclusive [inhibitor, single point]"

row,Structure (SMILES),Potency
1,CC1(C)CC2(CC(c3ccc(F)cc3)c3ccc(O)cc3O2)NC(=S)N1 (stereo not drawn),active: 2.33 µM
2,CCOC1OC(=O)C(Cl)=C1Nc1ccc(C)cc1C (stereo not drawn),"inconclusive [inhibitor, single point]"
3,CN(C)C(=O)CSc1nnc([C@@H](N)Cc2ccccc2)o1,"inconclusive [inhibitor, partial curve, poor fit]"
4,COc1cccc(CNC(=O)CCCn2nc(C)n3c(cc4sccc43)c2=O)c1,inactive
5,COc1ccc(CCNC(=O)CC(c2ccccc2)c2cccc(C)c2O)cc1OC (stereo not drawn),"inconclusive [inhibitor, full curve, poor fit]"
6,Cc1c(C(=O)N2CCN(S(=O)(=O)c3cc(F)ccc3F)CC2)oc2ccccc12,"inconclusive [inhibitor, partial curve]"
7,O=C(O)Cc1c(O)ccc2ccccc12,inactive
8,C/C(=N\NC(=S)Nc1ccccc1C)c1cc2ccccc2o1,"inconclusive [inhibitor, partial curve]"
9,CCOC(=O)c1c(NC(=O)c2ccc(S(=O)(=O)N(C)CC3CCCO3)cc2)sc2c1CC(C)(C)NC2(C)C (stereo not drawn),"inconclusive [inhibitor, single point]"
10,COc1ccc(N=Nc2nc(-c3ccccc3)c(-c3ccccc3)[nH]2)cc1,"inconclusive [inhibitor, partial curve, poor fit]"
11,Cc1c(O)ccc(C(=O)CN2CCN(c3ccccc3)CC2)c1O,inactive
12,O=C(NCCCCc1ccccc1)Nc1cccc(F)c1,"inconclusive [inhibitor, single point]"
13,Cc1cc(Oc2ccc(C#N)cc2)nc(N2CCOCC2)n1,inactive
14,Cc1nn(CCC(=O)N2CCN(S(=O)(=O)c3ccc(Cl)cc3)CC2)c(C)c1C,inactive
15,CCOc1ccc(-c2nnc(-c3ccco3)o2)cc1OCC,inactive
16,CC(C)S(=O)(=O)N1CCN(c2ccnc3cc(Cl)ccc23)CC1,active: 5.22 µM
17,O=C(CN(Cc1ccccc1)S(=O)(=O)c1ccc(F)cc1)NCc1ccccn1,"inconclusive [inhibitor, single point]"
18,O=c1[nH]c(CSc2ncc(-c3ccc(F)cc3)n2Cc2ccco2)nc2ccccc12,"inconclusive [inhibitor, single point]"
19,CC(=O)Nc1cc(NC(C)=O)cc(C(=O)NC(C)(C)C)c1,"inconclusive [inhibitor, single point]"
20,CCN1CCN(CCCOc2ccccc2-c2ccccc2)CC1,"inconclusive [inhibitor, single point]"
21,O=C1c2ccccc2NC(c2ccc(-c3ccc(Br)cc3)o2)N1O (stereo not drawn),"inconclusive [inhibitor, full curve, poor fit]"
22,CC(C)[C@H]1CN=C2N(CCNC(=O)CCC3CCCCC3)[C@H](Cc3ccc(O)cc3)CN21,active: 9.28 µM
23,CCOc1ccc(C(C)=O)cc1COC(=O)c1ccccc1C(=O)N(C)Cc1ccccc1,"inconclusive [inhibitor, single point]"

# Reference: PubChem BioAssay AID504832 (National Center for Advancing Translational Sciences (NCATS), 2011)
